Experimental data published in the supplement of paper PMC9446081.
Screen size: about 39,000 compounds; about 220 (0.56%) showed activity. This is one part of the list.

test system: Escherichia coli K-12 BW25113; experiment: relative growth (OD600 normalised to plate interquartile mean) (fraction); higher = less growth inhibition, active = 0.2 or less; settings: 50 µM; LB; incubation time: overnight (16-24 h)
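Note: static incubation at 37 °C against the wild-type strain, values averaged over two biological replicates.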

Row | SMILES | relative growth
1 | O=C(O)c1ccc(N2CCCS2(=O)=O)cc1 | inactive: 1.01
2 | C[C@H](CO)N1C[C@H](C)[C@@H](CN(C)S(=O)(=O)c2cn(C)cn2)Oc2cc(C3=CCCCC3)ccc2S1(=O)=O | inactive: 1
3 | C[C@H]1CN([C@@H](C)CO)C(=O)c2cc(NC(=O)C3CCCCC3)ccc2O[C@@H]1CN(C)C(=O)Nc1ccc(C(F)(F)F)cc1 | inactive: 1.02
4 | Nc1ncnc2c1ncn2CCN1CCCCC1 | inactive: 0.998
5 | Cc1noc(C)c1NC(=O)Nc1ccc2c(c1)CC(=O)N([C@H](C)CO)C[C@H](C)[C@@H](CN(C)Cc1ccc(C(=O)Nc3ccccc3N)cc1)O2 | inactive: 0.943
6 | CN(C)c1n[nH]c(=O)[nH]c1=O | inactive: 0.959
7 | COCC#Cc1ccc2c(c1)O[C@H](CN(C)C(=O)CN(C)C)[C@@H](C)CN([C@@H](C)CO)S2(=O)=O | inactive: 0.984
8 | C[C@@H]1CCCCO[C@@H](CN(C)S(=O)(=O)c2cccs2)[C@H](C)CN([C@H](C)CO)C(=O)c2cc(NC(=O)Nc3cccc4ccccc34)ccc2O1 | inactive: 1.04
9 | C[C@@H]1CN([C@@H](C)CO)C(=O)c2cc(NS(=O)(=O)c3ccccc3)ccc2O[C@@H](C)CCCCO[C@H]1CN(C)Cc1ccc(C(F)(F)F)cc1 | inactive: 0.975
10 | CO[C@@H]1CN(C)C(=O)c2cc(NC(=O)Nc3cccc(F)c3)ccc2OC[C@@H](C)N(C(=O)Nc2c(C)noc2C)C[C@H]1C | inactive: 1.01
11 | C[C@@H]1CN([C@H](C)CO)C(=O)c2cc(NS(=O)(=O)c3ccccc3)ccc2O[C@@H]1CN(C)CC1CC1 | inactive: 1
12 | COc1ccccc1S(=O)(=O)N(C)C[C@H]1OCc2cn(nn2)CCCC(=O)N([C@@H](C)CO)C[C@H]1C | inactive: 1.05
13 | C[C@H]1CN([C@@H](C)CO)C(=O)c2cc(NC(=O)Nc3cccc4ccccc34)ccc2O[C@H]1CN(C)S(=O)(=O)c1cccs1 | inactive: 1.01
14 | C[C@@H]1CCCCO[C@H](CN(C)S(=O)(=O)c2cccs2)[C@@H](C)CN([C@@H](C)CO)C(=O)c2cc(NC(=O)CCC(F)(F)F)ccc2O1 | inactive: 1.02
15 | Cc1noc(C)c1NC(=O)N(C)C[C@@H]1OCCCC[C@@H](C)Oc2ccc(NS(=O)(=O)c3ccccc3)cc2C(=O)N([C@H](C)CO)C[C@@H]1C | inactive: 0.971
16 | C[C@@H]1CN([C@H](C)CO)C(=O)c2c(c3ccccc3n2C)-c2ccccc2CO[C@@H]1CN(C)Cc1cccc(F)c1 | inactive: 1
17 | COc1ccc(NC(=O)N(C)C[C@@H]2OCCCC[C@@H](C)Oc3ccc(NC(=O)Nc4c(C)noc4C)cc3C(=O)N([C@H](C)CO)C[C@H]2C)cc1 | inactive: 0.982
18 | C[C@@H]1CN([C@H](C)CO)C(=O)c2cc(NS(=O)(=O)c3ccc(F)cc3)ccc2O[C@@H](C)CCCCO[C@@H]1CN(C)Cc1ccc(C(=O)O)cc1 | inactive: 1
19 | C[C@@H]1CN([C@@H](C)CO)C(=O)c2cccc(NS(=O)(=O)c3cn(C)cn3)c2O[C@@H]1CN(C)S(=O)(=O)c1ccccc1 | inactive: 0.975

Row | SMILES | relative growth
20 | Cc1noc(C)c1S(=O)(=O)Nc1ccc2c(c1)C(=O)N([C@H](C)CO)C[C@@H](C)[C@@H](CN(C)Cc1ccc(C(F)(F)F)cc1)OCCCC[C@H](C)O2 | inactive: 1.07
21 | C[C@@H]1CCCCO[C@H](CN(C)S(=O)(=O)c2ccc(Cl)cc2)[C@@H](C)CN([C@H](C)CO)C(=O)c2cc(NC(=O)Nc3ccccc3)ccc2O1 | inactive: 1.01
22 | C[C@H](CO)N1C[C@H](C)[C@H](CN(C)Cc2ccc3c(c2)OCO3)Oc2ccc(NS(C)(=O)=O)cc2CC1=O | inactive: 0.978
23 | CC(=O)N1C[C@H](O)C[C@H]1C(=O)O | inactive: 0.947
24 | C[S+](C)CC[C@H](N)C(=O)O | inactive: 1.01
25 | C[C@H](CO)N1C[C@H](C)[C@@H](CN(C)S(=O)(=O)c2ccc(F)cc2)Oc2ccc(NC(=O)Cn3cnnn3)cc2CC1=O | inactive: 1
26 | O=C(N[C@@H]1C=C[C@H](CC(=O)N2CCOCC2)O[C@@H]1CO)c1ccc2c(c1)OCO2 | inactive: 0.992
27 | C[C@H]1CN([C@@H](C)CO)C(=O)Cc2cc(NC(=O)Nc3cccc4ccccc34)ccc2O[C@@H]1CN(C)Cc1ccc(Cl)c(Cl)c1 | inactive: 0.996
28 | O=C1N[C@H](Cc2c[nH]c3ccccc23)COC(=O)[C@@H](Cc2ccc(F)cc2)CC=CC[C@H]1CC(=O)N(CCO)Cc1ccccc1 | inactive: 1.01
29 | C[C@@H]1CN([C@@H](C)CO)C(=O)Cc2cc(NC(=O)C3CC3)ccc2O[C@H]1CN(C)C(=O)Nc1ccccc1 | inactive: 0.965
30 | C[C@H]1CN([C@@H](C)CO)C(=O)c2cc(NS(=O)(=O)c3cn(C)cn3)ccc2O[C@@H]1CN(C)CC1CC1 | inactive: 0.974
31 | COc1ccc(S(=O)(=O)N(C)C[C@H]2Oc3ccc(NS(=O)(=O)c4cn(C)cn4)cc3C(=O)N([C@@H](C)CO)C[C@@H]2C)cc1 | inactive: 0.965
32 | CS(=O)(=O)c1ccc(C(O)C(CF)NC(=O)C(Cl)Cl)cc1 (stereo not drawn) | active: 0.0463
33 | C[C@@H]1CCCCO[C@H](CN(C)Cc2ccc(C(F)(F)F)cc2)[C@H](C)CN([C@@H](C)CO)C(=O)c2cc(NS(=O)(=O)c3ccc(Cl)cc3)ccc2O1 | inactive: 1.03
34 | C[C@H]1CN([C@@H](C)CO)S(=O)(=O)c2ccc(C#Cc3cccc(F)c3)cc2O[C@H]1CN(C)S(=O)(=O)c1ccccc1F | inactive: 1.03
35 | C[C@@H]1CN([C@H](C)CO)C(=O)Cc2cc(NC(=O)Cc3cn(C)c4ccccc34)ccc2O[C@@H]1CN(C)Cc1ccc(C(=O)Nc2ccccc2N)cc1 | inactive: 1
36 | C[C@H](CO)N1C[C@H](C)[C@H](CN(C)Cc2ccc(Oc3ccccc3)cc2)Oc2ccc(NC(=O)c3ccncc3)cc2CC1=O | inactive: 1.02
37 | C[C@H](CO)N1C[C@H](C)[C@@H](CN(C)C(=O)Cc2ccccc2)OCCCC[C@H](C)Oc2ccc(NS(=O)(=O)c3cccs3)cc2C1=O | inactive: 0.995
38 | C[C@@H]1CN([C@H](C)CO)C(=O)c2cc(NC(=O)Nc3ccccc3)ccc2O[C@H]1CN(C)S(=O)(=O)c1cn(C)cn1 | inactive: 0.978
